Laboratory results: PubChem BioAssay AID1347416 (National Center for Advancing Translational Sciences (NCATS), 2020)
About 1,600 (39%) of roughly 4,100 compounds were called active. Inconclusive means that the source gave no clear call. Such entries were picked first, then a sample of the others. The call rests on the fitted dose curve; in most records, active means well fitted inhibition curve with a large enough effect; inconclusive means small, poorly fitted or top-dose-only effect; inactive means no such curve, though single readings can be large or run the other way. Potencies of inconclusive entries are doubtful fits and often do not repeat.

Assay: qHTS Validation assay for Inhibitors of Plasmodium falciparum Dd2 growth in vitro; further: nearly all actives have a fitted effect of over 70% in size
Conditions: P. falciparum Dd2 in RBCs, SYBR Green growth, 72 h; series mostly up to 28.7 µM
In short: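 P. falciparum Dd2-infected red blood cells (2.5% hematocrit, 0.3% parasitemia) grown 72 h at 37 °C under 5% O2 with compounds in a titration, 29 uM to 0.5 nM final. Growth read as SYBR Green-1 fluorescence after ~16 h lysis; artesunate 300 nM as positive control.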
Potency means the concentration at half of the fitted maximal effect; tags describe the fitted curve by direction and shape.

Potency, inactive:
CC(=O)Nc1ccc(CN2CCC3(CC2)CNc2ccccc2[S+](=O)([O-])N3)cc1, CCc1cccc(C)c1Nc1c(-c2cccc(O)c2)nc2sccn12, Cc1ccccc1C(=O)N1CCC(c2nc3ccccc3s2)CC1, COc1ccc(Cn2c(C3CCN(C(=O)Cc4ccc(F)cc4)CC3)n[nH]c2=O)cc1, COc1ccc(NC(=O)c2nnn(Cc3ccccc3C)c2N)c(OC)c1, CCc1noc(-c2cccn3c(CNC(=O)c4cccc(F)c4)nnc23)n1, Cc1ccc(S(=O)(=O)Nc2cc(=O)[nH]c(SCC(=O)Nc3cccc(C)c3)n2)cc1, COc1ccc(-c2cc(N3CCCC(NC(=O)c4cccc(F)c4)C3)n[nH]2)cc1 (centres undefined), Cc1ccc(-c2nc(C)c(C(=O)O)s2)cc1, O=C1NC(=NC2CCCC2)C2(CCN(Cc3ccsc3)C2)N1c1cccnc1 (centres undefined), COc1ccccc1CCNC(=O)c1cccn1-c1nnc(N2CCCCC2)s1, CCN(CC)CCNC(=O)c1ccc(NC(=O)c2cc(-c3ccncc3)nc3ccccc23)cc1, CCc1cccc(NC(=O)C2CCN(C(=O)c3nnn4c3COC(c3ccc(C)cc3)C4)CC2)c1 (centres undefined), Cc1nn(C)cc1CN1CCC(O)(c2ccccc2)[C@H](N2CCCC2)C1 (some centres undefined), Cc1ccc(CN2CCNC(=O)C2CC(=O)N(CC(C)C)CC(C)C)cc1 (centres undefined), CC1(Cc2ccc3c(c2)OCO3)CCCN(C(=O)c2ccccc2-n2cncn2)C1 (centres undefined), CCc1noc(-c2nc(-c3ccc(OC)c(OC)c3)no2)n1, CCn1cc(CN2CCCC(c3nc(C(C)C)no3)CCNC(=O)CC2)cn1 (centres undefined), COc1ccc(CCc2nc3nccc(-c4ccc5c(c4)OCCCO5)n3n2)cc1OC

Potency, active:
CC(C)CC(NC(=O)C(NC(=O)OC(C)(C)C)C(C)C)C(=O)NC(CCC(=O)OCc1ccccc1)C(N)=O (centres undefined) 8.41 µM, Cc1ccc(NC2=C(c3ccc(C(F)(F)F)cc3)C(=O)c3ccccc32)cc1C 2.11 µM, CCCSc1ccc([C@H]2N[C@@](Cc3ccccc3)(C(=O)OC)[C@H]3C(=O)N(CC)C(=O)[C@@H]23)cc1 5.31 µM, COc1ccccc1C(=O)N1CCC2(CC1)OC(=O)N(CCOc1ccccc1)C2(C)c1cccnc1 (centres undefined) 9.44 µM

Potency, inconclusive:
C=C1CCC(N(O)c2cc(C)on2)C(=C)CCC2C1CC2(C)C (centres undefined) 21.1 µM [inhibitor, single point], O=C(Nc1ccc2c(c1)OCCO2)N1CCC(Cc2nc(-c3ccncc3)n[nH]2)C1 (centres undefined) 21.1 µM [inhibitor, single point], COc1ccccc1C(=O)N1CCC2(CC1)COc1ccccc1CN2 6.85 µM [inhibitor, full curve, poor fit], O=C(OCC1CCCO1)c1ccc2c(c1)N(Cc1ccccc1F)C(=O)c1ccccc1S2(=O)=O (centres undefined) 18.8 µM [inhibitor, single point], COc1ccc(-c2cc(N3CCC(NC(=O)C4(c5ccccc5)CC4)CC3)n[nH]2)cc1 18.8 µM [inhibitor, partial curve, poor fit], COc1ccccc1NC(=O)COc1cccc(-c2nnc3n2CCCC3)c1 23.7 µM [inhibitor, single point], COc1ccc(-c2ncc3c(n2)OCCN(c2ccccc2)C3=O)cc1F 30.6 µM [inhibitor, single point], O=C(NCc1nnc2c(-c3nc(C4CC4)no3)cccn12)c1c(F)cccc1Cl 23.7 µM [inhibitor, single point], CCc1ccc(NC(=O)Cn2c(-c3ccc(F)cc3)nc(C)c(CCO)c2=O)cc1 15 µM [inhibitor, single point], CCOC(=O)c1ccc(CN(Cc2ccc(F)cc2)S(=O)(=O)c2ccc(F)c(C(=O)Nc3cc(Cl)ccc3OC)c2)cc1 21.1 µM [inhibitor, single point], CCc1cccc(NC(=O)Cn2c(C)ccc(NS(=O)(=O)c3ccc(C)cc3)c2=O)c1 15 µM [inhibitor, single point], O=C(NCC12CCCC=C1N(Cc1ccccc1)C(=O)CC2)C1CCC1 (centres undefined) 21.1 µM [inhibitor, single point], O=C(NC1CCN(Cc2ccc(Cl)cc2)CC1)c1cn(-c2ccccc2)nc1-c1cccnc1 21.1 µM [inhibitor, single point], CCOc1ccc(CC(=O)N2CCC[C@H]2c2nc(-c3ccc(OC)c(OC)c3)no2)cc1 10.6 µM [inhibitor, partial curve, poor fit], CN(C)c1ccc(C(=O)N2CCN3C(=O)c4cc(-c5ccc6c(c5)OCO6)ccc4NC(=O)[C@H]3C2)cc1 18.8 µM [inhibitor, single point], OC(CNCCNc1ncccc1C(F)(F)F)Cn1ccc2ccccc21 (centres undefined) 2.37 µM [inhibitor, full curve, poor fit], COc1ccc(C(=O)NC2CCCN(c3cc(-c4ccc(Cl)cc4)[nH]n3)C2)cc1OC (centres undefined) 21.1 µM [inhibitor, single point], CC(C)C(=O)N1Cc2ccccc2OC2(CCN(C(C)C)CC2)C1 10.6 µM [inhibitor, partial curve], O=C(NC1CCN(Cc2ccccc2)CC1)c1cccc2c1CCN2C(=O)c1ccccc1 18.8 µM [inhibitor, single point], Oc1cccc(Nc2nc(NCC3CCCO3)c3ccccc3n2)c1 (centres undefined) 1.68 µM [inhibitor, full curve, poor fit], Cc1cccc(C(=O)N2CCc3cc(CNC(=O)COc4ccc(Cl)cc4)ccc32)c1 23.7 µM [inhibitor, single point], Cc1ccc(CN2CCCC(Cc3ncc(C)n3Cc3ccccc3)C2)o1 (centres undefined) 9.44 µM [inhibitor, partial curve], COc1ccccc1N1CCN(C(=O)CN2C(=O)C(c3ccccc3)=NC2(C)C)CC1 15 µM [inhibitor, single point], C[C@H]1[C@@H]2[C@H]3OC(=O)[C@@H](C)[C@@H]3CC[C@@]2(C)CC[C@@H]1NC(=O)CC(C)(C)C 0.273 µM [inhibitor, partial curve, poor fit], O=C(Nc1ccc2[nH]ccc2c1)c1ccc(-c2ncc3cnc(C4=CCOCC4)cn23)cc1 27.3 µM [inhibitor, single point], COc1cccc(N2C(N)=NC(N)=NC2(C)C)c1 21.1 µM [inhibitor, single point], CCCN1C(CC(C)C)=NS(=O)(=O)c2cc(NC(=O)c3ccccc3Cl)ccc21 16.8 µM [inhibitor, single point], COc1cccc(CNC(=O)[C@@H]2C[C@@H](O)CN2C2CCN(C(=O)c3ccsc3)CC2)c1 15 µM [inhibitor, partial curve, poor fit], COc1ccc(OC)c(S(=O)(=O)N[C@H]2CO[C@H]3[C@@H]2OC[C@H]3OC(=O)Nc2cccc(C(C)=O)c2)c1 21.1 µM [inhibitor, single point], Cc1oc(-c2ccc(Cl)cc2)nc1Cn1c(=O)cc(-c2ccccc2)c2c(C)nn(C)c21 9.44 µM [inhibitor, partial curve], COc1ccccc1CNC(=O)C1(c2ccc(NS(C)(=O)=O)cc2)CCCCC1 16.8 µM [inhibitor, single point], COc1ccc(Cc2nnc(NC(=O)c3ccc(OC)cc3OC)s2)cc1 7.5 µM [inhibitor, single point], NS(=O)(=O)c1cccc(NC(=O)CSc2nn(-c3ccccc3)c(=S)s2)c1 21.1 µM [inhibitor, single point], O=C(Nc1ccc([C@H]2OCC(=O)N(Cc3ccncc3)[C@@H]2CO)cc1)c1ccc(C(F)(F)F)cc1 16.8 µM [inhibitor, partial curve], CCC1(N2CCN(C)CC2)CCN(S(=O)(=O)c2ccccc2)C1 (centres undefined) 6.68 µM [inhibitor, partial curve], CCOc1ccc(S(=O)(=O)N2CCC3(CC2)CN(C)CC3COC)cc1 (centres undefined) 15 µM [inhibitor, single point], CC(C)(Oc1nn(Cc2cccc(Cl)c2)c2ccccc12)C(=O)NCc1cnccn1 34.4 µM [inhibitor, single point], CN(C)S(=O)(=O)Oc1ccsc1C(=O)Nc1cccc(Cl)c1 21.1 µM [inhibitor, single point], NC(=O)c1cccc(-c2ncc3c(n2)OCCN(c2cccc(C(F)(F)F)c2)C3=O)c1 21.7 µM [inhibitor, single point], Oc1c(CNc2ccccc2)cc(COCc2ccccc2)c2cccnc12 21.1 µM [inhibitor, single point], CC(C)c1noc(-c2cn(C3CCCN(C(=O)c4ccc(C(C)(C)C)cc4)C3)nn2)n1 (centres undefined) 16.8 µM [inhibitor, single point]
